# Assay results as given in the supplement of paper PMC11417369.
# ± gives the standard deviation of the averaged measurements. The list shows a part of the results.
# Tested on: PfAP2-EXP AP2 domain (GST-tagged)
# Assay: gcPBM binding intensity (ln(normalized median fluorescence intensity)); higher = stronger DNA binding
# Procedure, shortened: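 The binding buffer was 1× PBS containing 1% milk, 0.2 mg/ml BSA, 0.5% salmon testes DNA and 0.03% Triton X-100. In it, GST-tagged P. falciparum DNA-binding domains expressed in E. coli were applied for 1 h to an Agilent 4 × 180k array of primer-extended double-stranded 36-bp intergenic genomic probes plus negative controls. Binding intensity, read with Alexa488 anti-GST antibody and a 488 nm scan, is the highest Masliner-normalised natural-log median intensity across replicate spots of either probe orientation.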
row,Sequence,gcPBM binding intensity (ln)
1,TTATTTAAATATTGATGTACTCTCCTTATTATAATA [XGTACX_site1240],8.74 ± 0.4
2,ATAAAAATGGTGTTAACACACACATATATATATATA [CACACA_site8089],10.1 ± 0.38
3,ATATATTAACAAAAGGTGCTTTTGGCAAAGTATAAT,8.83 ± 0.31
4,GGTAATTATTTTGGTTGTACTCAAATATATAATATT [XGTACX_site291],8.69 ± 0.35
5,GAGAAAGATATATACACACACATAAATATGTACATA [CACACA_site6975],8.57 ± 0.38
6,TTTACAATATTAAAATGTACATATAAAATAAATAAA [XGTACX_site8367],8.71 ± 0.4
7,TATATAGGTAAAAAATGTACTTATATTGAATATATT [XGTACX_site4414],8.34 ± 0.36
8,TTTCCCAAGCTTATTACACACAAGTAGAATAAGCTT [CACACA_site1561],8.28 ± 0.4
9,AATTTGTTAATATTTTGTACACATAATATAAAAACA [XGTACX_site2224],8.38 ± 0.32
10,GATATCAAATATAAATGTACAAATTATATATACATA [XGTACX_site3228],8.27 ± 0.28
11,TTCTTATTTATTTTCTTCTCCTTCCTCAAATTTTTT [GTGCAC_negctrl_site592],8.84 ± 0.4
12,TATATAAATGTTATCACACACTCACGTTTGACAAAA [CACACA_site6468],8.38 ± 0.26
13,TTTACAATATAAAATACACACACACTAACATATATT [CACACA_site9231],8.65 ± 0.54
14,TCCTTTTTTAAAAGTTGTACATTATTGTTATTTGTT [XGTACX_site4686],8.65 ± 0.3
15,ATACAATAAAATAAGTTTGAATAAAATTAAATATAT [CACACA_negctrl_site877],8.38 ± 0.4
16,GAAGGAAATAATAGTAGTACAAATGGTAAGAAATAT [XGTACX_site5845],9.23 ± 0.49
17,TTCCTCTTAATATGTGCACACTAAATTATAACCTAA [CACACA_site5751],8.93 ± 0.014
18,TACAAAAAAAAAAAATAGATAAAATAATAATCAAAT [TGCATGCA_negctrl_site524],8.42 ± 0.45
19,ATATATTGAACATATTGTACATTTTGTTAATATTTT [XGTACX_site7622],8.26 ± 0.52

row,Sequence,gcPBM binding intensity (ln)
1,TCTCAAGTTGTTAAAAAATAAAAACAATAAATCTAA [CACACA_negctrl_site165],8.22 ± 0.5
2,AACAATTGGAATAACGCATGCATTTATAATATAGAA [TGCATGCA_site298],9.66 ± 0.19
3,CAATTTTTTAAATGCACACAAAAGGAATAAATAAAT [CACACA_site544],8.83 ± 0.27
4,AAGAAGAAATGCTTTGCATGCAAATTTTATGCCAAC [TGCATGCA_site721],10.1 ± 0.17
5,ACAAATTTATACTTAAAACACACGTAATCATTTATA [CACACA_site1636],8.34 ± 0.45
6,TGAATATTCCTATGCACACAAATTAAAATACATAAT [CACACA_site4403],8.64 ± 0.35
7,TAAAATAATTTATGCATACACACATATATATATATA [CACACA_site4021],10.1 ± 0.47
8,TACAATTTTTTAAATGCACACAAAAGGAATAAATAA [CACACA_site8075],8.78 ± 0.16
9,AAAAGCAAGTTCCAGGGTACATATATATGAAAAAAC [XGTACX_site2408],9.03 ± 0.47
10,TAATATATGTATTGCACACCTATAACCATTATTTCT [CACACA_site1498],8.86 ± 0.11
11,AAATATATTTTACATTGTACATGAATAAACTATAAA [XGTACX_site2080],8.65 ± 0.59
12,AAAAATTAAATAAATTTACACACTAATAATTACATA [CACACA_site8260],8.2 ± 0.38
13,AAAAATATGTCCATGAAAAGGATAGGCAGGTAATCA [XGTACX_negctrl_site93],8.75 ± 0.62
14,ACGTTAAAATATTGGGTGCTAACACAATAAAAATAA,8.76 ± 0.2
15,AAATATATAAAATATACACACAGTAATATATATATA [CACACA_site1385],9.52 ± 0.35
16,TCTTGTTTTCAAATATGTACATAGAATAGACATTTT [XGTACX_site684],8.61 ± 0.38
17,ATAAAATGAACAAACACACACACATATATATATATA [CACACA_site2402],10.1 ± 0.44
18,TATATATAAATATTCAGTACATAGTATTATTAAGTA [XGTACX_site1980],8.25 ± 0.24
19,AAGTTTTATTTAAATTGTACTAAAATTTTTATATTA [XGTACX_site7065],8.28 ± 0.35

row,Sequence,gcPBM binding intensity (ln)
1,CCTAAAAAAAAGAAATGATATACATATGTATATATA [GTGCAC_negctrl_site100],8.54 ± 0.4
2,TATTTAAGAATATGAAGTACATATATTATTTAAAAA [XGTACX_site7897],8.15 ± 0.29
3,CATATAAATAAATACACACACACACGCCTTATAATT [CACACA_site7830],8.7 ± 0.64
4,TATATAGGTATCATTACACACATGTATACTTATTTG [CACACA_site7864],8.56 ± 0.28
5,TTTTTCTTTCTCTATTGTACACATGGAAACACATAA [XGTACX_site4601],8.93 ± 0.38
6,TTTTTTTTTTTTAATTGTACATTTTATATAAACTTT [XGTACX_site6806],8.57 ± 0.66
7,TGTTGATTTCTCAAATGTACTTTACTTTTCTTCAGA [XGTACX_site7916],8.46 ± 0.33
8,AATTTATTTTTTTAATGTACATATGGTATAAATATA [XGTACX_site8012],8.68 ± 0.39
9,AATATATATATATGTACACACTCCAATACATATACA [CACACA_site2682],8.59 ± 0.31
10,TTAAGAATATCTTAGAGTACATTTTATCATCTTAAA [XGTACX_site8298],7.96 ± 0.24
11,TCTTTTTAAATTACTATAATACATTCATAAATTATA [GTGCAC_negctrl_site448],8.27 ± 0.4
12,TTTTTTTATTTTATAAAGCAAAAATAAGAATGAAAT [XGTACX_negctrl_site270],8.37 ± 0.26
13,AGGGAATAAGTAAGGTGTACATAATTATGTTACTTT [XGTACX_site6152],8.77 ± 0.3
14,TATATGTATGTATGTACACACAAAAAATGGAATATA [CACACA_site3717],8.83 ± 0.38
15,ATTTAAAACAAAAGTAGTACGTCTAATAAATTCAAC [XGTACX_site4344],8.45 ± 0.34
16,TTATCAATAAAATGCACACACTGTAATATTATTAAA [CACACA_site6055],8.39 ± 0.33
17,ATATATATTTATATTTGTACGAATTAAAATTTTTTA [XGTACX_site5200],8.48 ± 0.32
18,ATAGCTTTTATTTAAAGTACAAAAAGGATGTTGAAA [XGTACX_site3810],8.46 ± 0.3
19,AAAAAAAAAAAACACACACACACACCCATACATACA [CACACA_site707],8.65 ± 0.56
